# Assay results from publication PMC4336329 (PLoS ONE, 2015).
# In all, about 310,000 compounds went through this assay and about 14,000 (4.5%) showed an effect of 50% or more. The effect is printed as a negative number. The list shows a part of the results.
# Biological target: human ether-à-go-go-related gene (hERG) potassium channel (human, UniProt Q12809)
# Experiment: primary screen, population patch clamp on CHO cells stably expressing hERG
# 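Note: peak tail current of the secondary pulse compared with the same well before compound.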
# Chain of human ether-à-go-go-related gene (hERG) potassium channel (Q12809 whole entry, looked up): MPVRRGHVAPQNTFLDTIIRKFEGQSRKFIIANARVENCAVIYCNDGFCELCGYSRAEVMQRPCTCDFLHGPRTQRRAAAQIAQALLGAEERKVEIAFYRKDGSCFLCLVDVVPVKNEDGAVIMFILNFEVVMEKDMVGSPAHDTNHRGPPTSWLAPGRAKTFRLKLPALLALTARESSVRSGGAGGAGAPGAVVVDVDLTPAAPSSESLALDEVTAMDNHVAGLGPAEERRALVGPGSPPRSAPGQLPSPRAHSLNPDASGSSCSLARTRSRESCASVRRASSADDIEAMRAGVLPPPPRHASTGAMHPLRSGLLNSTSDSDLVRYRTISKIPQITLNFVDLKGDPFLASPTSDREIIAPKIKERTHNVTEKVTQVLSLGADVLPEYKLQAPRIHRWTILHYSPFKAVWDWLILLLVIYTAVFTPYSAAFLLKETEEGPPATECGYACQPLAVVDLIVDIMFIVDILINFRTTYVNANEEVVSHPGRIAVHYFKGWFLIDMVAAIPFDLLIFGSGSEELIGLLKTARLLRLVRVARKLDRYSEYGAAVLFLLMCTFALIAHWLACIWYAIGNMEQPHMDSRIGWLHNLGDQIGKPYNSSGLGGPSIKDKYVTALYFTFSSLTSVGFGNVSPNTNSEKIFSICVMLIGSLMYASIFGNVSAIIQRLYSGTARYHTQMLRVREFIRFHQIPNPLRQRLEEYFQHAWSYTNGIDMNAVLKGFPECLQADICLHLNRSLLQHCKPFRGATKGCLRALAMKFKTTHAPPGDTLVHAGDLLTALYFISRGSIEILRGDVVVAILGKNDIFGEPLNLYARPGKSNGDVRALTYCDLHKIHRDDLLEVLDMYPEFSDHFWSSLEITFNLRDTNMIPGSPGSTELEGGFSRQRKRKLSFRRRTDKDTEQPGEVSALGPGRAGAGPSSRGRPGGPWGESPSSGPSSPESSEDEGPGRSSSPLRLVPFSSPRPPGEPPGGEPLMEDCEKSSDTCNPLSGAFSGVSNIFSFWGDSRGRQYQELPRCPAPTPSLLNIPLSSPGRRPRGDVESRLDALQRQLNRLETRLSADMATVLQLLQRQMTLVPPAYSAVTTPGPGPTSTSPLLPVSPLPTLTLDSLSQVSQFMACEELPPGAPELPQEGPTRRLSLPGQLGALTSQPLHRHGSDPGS
row,SMILES,"hERG current change (%, negative = inhibition) at 10uM [%]"
1,Cc1csc(NC(=O)c2ccccc2C(=O)O)n1,-0.365
2,Cc1ccc(C)c(NS(=O)(=O)c2cc(C(=O)NCc3ccccn3)ccc2Cl)c1,-37.5
3,Cc1nc(CC(=O)c2ccc(O)cc2O)cs1,10.1
4,S=c1[nH]nc(-c2ccc3ncccc3c2)n1-c1ccc2c(c1)OCCO2,10.9
5,COc1cc(/C=N/NC(=O)NC23CC4CC(CC(C4)C2)C3)ccc1O,-34.3
6,CCCC(=O)Nc1cc(C)c(NC(=O)Cc2ccccc2)cn1,2.52
7,Cc1nc2cc(NC(=O)NCCC3=CCCCC3)ccc2o1,5.56
8,O=[N+]([O-])c1cc(/C=N/O)ccc1SCc1ccccc1Cl,-1
9,CCc1nnc(NC(=O)CSCc2cc(=O)n3cc(C)sc3n2)s1,5.66
10,Cc1cc(Cl)ccc1N(CC(=O)NCc1ccccc1)S(C)(=O)=O,-1.12
11,C/C=C/C(=O)OCC(=O)NC(=O)NC(C)C,2.41
12,Cc1ccc(CCNC(=O)c2ccc(CS(=O)(=O)c3ccccc3C)o2)cc1,-42.4
13,S=c1[nH]nc(-c2cc(-c3ccccc3)n[nH]2)n1/N=C/c1ccc(Br)s1,13.2
14,COc1cc(O)c(CCC(=O)c2ccc(OC)c(OC)c2)c(OC)c1,9.29
15,O=C(c1cccc(C(F)(F)F)c1)C1CCCN(C(=O)CCCN2CCCC2=O)C1 (stereo not shown),-4.27
16,CS(=O)(=O)N(Cc1ccccc1)c1ccc(C(=O)Nc2ccccc2C(=O)O)cc1,21.2
17,CC(=O)NC(CCS(C)(=O)=O)C(=O)Nc1ccccc1C (stereo not shown),4.17
18,CCOc1c(Br)ccc2c1sc1nc[nH]c(=O)c12,-12.2
19,Cc1ccc(CNC(=O)CCSCc2ccc(C)cc2)cc1,-2.27
20,O=C(c1ccoc1)N1CCC2(CC1)Oc1ccc(F)cc1C(=O)C21CC(c2ccc(Cl)cc2)=NO1 (stereo not shown),18.5
21,O=C(Nn1c(Cc2ccccc2)nc2ccccc2c1=O)c1c(O)c2cccc3c2n(c1=O)CCC3,23.9
22,CCOC(=O)c1ccc(NC(=S)Nc2ccccc2N)cc1,12

row,SMILES,"hERG current change (%, negative = inhibition) at 10uM [%]"
1,CCN(C(=O)/C=C/c1ccc(OC)cc1)C1CCS(=O)(=O)C1 (stereo not shown),-22.6
2,O=C(CCN1C(=O)c2ccccc2C1=O)N1CCOCC1,3.02
3,COC(=O)CCC(=O)Nc1c(C)n(C)n(-c2ccccc2)c1=O,10.2
4,O=c1c2ccccc2nc(N/N=C/c2c(O)ccc3ccccc23)n1O,0.819
5,Cc1occc1-c1nnc(SCC(=O)NC(C)(C)C)n1C(C)c1ccccc1 (stereo not shown),-11.8
6,Cc1ccc(-c2cc(-c3ccc(C)cc3O)[nH]n2)cc1,11.3
7,COc1cc(CNCc2ccccn2)ccc1OCC(N)=O.Cl,-0.0507
8,Cc1nc2cc(NC(=O)COc3ccccc3C#N)ccc2n1-c1ccccc1,-4.85
9,CCOC(=O)C1=C(N)Oc2cc(C)oc(=O)c2C12C(=O)N1c3c(cc(OC)cc32)C(C)=CC1(C)C (stereo not shown),-1.93
10,Cc1nnc(SCCCCSc2nnc(C)c(=O)[nH]2)[nH]c1=O,10.5
11,COc1cccc(CC(=O)Nc2nc(-c3ccc(F)c(F)c3)cs2)c1,12.7
12,N#Cc1c(-c2ccc3c(c2)OCO3)cc[nH]c1=O,18.8
13,CCc1ccccc1NC(=O)C1CCCN(c2ncnc3onc(-c4ccc(F)cc4)c23)C1 (stereo not shown),11.2
14,CC(C)Cn1c(SCC(=O)N2CCN(C(=O)c3ccco3)CC2)nc2ccccc2c1=O,-73.2
15,O=C1NC(=Nc2ccccc2Cl)S/C1=C\c1cccc([N+](=O)[O-])c1O,13.6
16,O=C(CN1CCN(S(=O)(=O)c2ccccc2)CC1)Nc1ccccc1C(=O)c1ccccc1,-19.4
17,Cn1nc(C(=O)OCc2ccccc2F)c2ccccc2c1=O,13
18,CC(C)(C)c1cc(NC(=O)Nc2ccc(Br)cc2Cl)no1,25.1
19,CCOC(=O)c1c(-c2ccc(C)o2)csc1NC(=S)NC(=O)c1ccccc1Br,15.3
20,Cl.c1ccc2c(Nc3ccc4c(c3)OCCO4)c3c(nc2c1)CCC3,-52.3
21,COc1ccc2c(c1)C(c1ccc(Cl)cc1)NC(=O)C2 (stereo not shown),-5.84
